{"source": "PubChem BioAssay AID1460", "about": "(National Center for Advancing Translational Sciences (NCATS), 2008)", "note": "About 5,800 (2.1%) of roughly 270,000 compounds were called active. Inconclusive means that the source gave no clear call. Such entries were picked first, then a sample of the others. The call rests on the fitted dose curve; in most records, active means well fitted inhibition curve with a large enough effect; inconclusive means small, poorly fitted or top-dose-only effect; inactive means flat fitted curve, though single readings scatter. Where the call is inconclusive, the potency comes from a doubtful curve fit. On the % scale 0 is the no-effect control and ±100 the full control effect; potency means the concentration at half of the fitted maximal effect; tags describe the fitted curve by direction and shape.", "data": [{"molecular_target": "Microtubule-associated protein tau (Homo sapiens) (UniProt P10636)", "sequence (P10636 whole entry, looked up)": "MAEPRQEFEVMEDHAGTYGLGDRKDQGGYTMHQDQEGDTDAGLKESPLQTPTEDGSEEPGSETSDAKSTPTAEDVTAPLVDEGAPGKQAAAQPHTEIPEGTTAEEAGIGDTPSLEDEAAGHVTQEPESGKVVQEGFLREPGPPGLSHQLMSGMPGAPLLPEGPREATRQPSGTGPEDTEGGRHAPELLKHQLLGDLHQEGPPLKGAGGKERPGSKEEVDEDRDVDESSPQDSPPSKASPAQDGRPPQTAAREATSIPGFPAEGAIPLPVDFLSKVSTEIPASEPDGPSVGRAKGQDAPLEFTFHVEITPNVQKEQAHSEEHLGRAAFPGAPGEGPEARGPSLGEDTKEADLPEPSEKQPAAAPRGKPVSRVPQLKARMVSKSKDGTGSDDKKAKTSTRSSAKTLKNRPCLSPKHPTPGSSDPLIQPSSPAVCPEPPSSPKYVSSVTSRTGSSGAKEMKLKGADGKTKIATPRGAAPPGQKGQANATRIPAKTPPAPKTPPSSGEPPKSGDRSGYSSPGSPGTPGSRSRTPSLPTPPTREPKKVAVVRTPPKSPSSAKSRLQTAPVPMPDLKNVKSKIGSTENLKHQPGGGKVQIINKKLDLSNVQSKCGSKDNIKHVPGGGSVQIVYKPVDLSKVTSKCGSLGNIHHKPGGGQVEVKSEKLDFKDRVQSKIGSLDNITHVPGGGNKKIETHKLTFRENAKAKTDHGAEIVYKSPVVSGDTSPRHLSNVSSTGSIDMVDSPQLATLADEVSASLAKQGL", "experiment": "qHTS for Inhibitors of Tau Fibril Formation, Thioflavin T Binding; further: nearly all actives have a fitted effect of over 55% in size", "conditions": "recombinant tau K18 P301L, heparin-induced fibrillization, ThT fluorescence; series mostly up to 57.4 µM; activity, negative = inhibition: at the top concentration", "how_it_was_run": "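Using a mix of unlabeled (15 uM) and Alexa 594-labeled (0.24 uM) tau K18 P301L, heparin-triggered fibrillization over 6 hr at 37 C was scored by ThT fluorescence.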", "values": [{"smiles": "O=C(CCc1nnc2n(Cc3ccccc3Cl)c(=O)c3ccccc3n12)Nc1ccc(F)cc1", "activity, negative = inhibition": "inactive: 4.44%"}, {"smiles": "O=C(CSc1nnc(CNC(=O)c2ccccc2F)n1-c1ccccc1)Nc1ccccc1F", "activity, negative = inhibition": "inactive: 5.97%"}, {"smiles": "CCOC(=O)c1ccc(NC(=O)Nc2ccc3c4c(cccc24)C(=O)N3CC)cc1", "Potency": "inconclusive: 1 µM [inhibitor, full curve]"}, {"smiles": "O=C(N/N=C/c1c[nH]c2ccccc12)c1cc(-c2ccccc2)n[nH]1", "Potency": "inconclusive: 1.58 µM [inhibitor, full curve]"}, {"smiles": "COc1cccc(C(c2sc3ncnn3c2O)N2CCc3ccccc3C2)c1", "note": "(configuration not stated)", "activity, negative = inhibition": "inactive: -4.15%"}, {"smiles": "Cc1cccc(OCc2n(CC(=O)OC3CC(C)CCC3C(C)C)c3ccccc3[n+]2C)c1", "note": "(configuration not stated)", "Potency": "inconclusive: 20 µM [inhibitor, partial curve]"}, {"smiles": "O=C(O)/C=C/C(=O)NNC(=O)c1cccc(Br)c1", "Potency": "inconclusive: 10 µM [inhibitor, partial curve]"}, {"smiles": "Cc1nn(C)c(Oc2cccc(Cl)c2)c1C#N", "activity, negative = inhibition": "inactive: -7.78%"}, {"smiles": "COc1ccc(NC(=O)c2cc([N+](=O)[O-])ccc2N2CCCC2)cc1", "Potency": "inconclusive: 20 µM [inhibitor, partial curve]"}, {"smiles": "CCOC(=O)Cc1cc(=O)n(-c2nc3ccccc3s2)[nH]1", "Potency": "inconclusive: 14.1 µM [inhibitor, partial curve]"}, {"smiles": "CC1CCN(C2=C(NS(=O)(=O)c3ccc(Cl)cc3)C(=O)c3ccccc3C2=O)CC1", "Potency": "inconclusive: 14.1 µM [inhibitor, partial curve]"}, {"smiles": "CCOc1ccc(-n2ccn3c(CC(C)CC(=O)O)nnc3c2=O)cc1", "note": "(configuration not stated)", "activity, negative = inhibition": "inactive: -16%"}, {"smiles": "C=CCSc1nnc(-c2ccc(Cl)cc2Cl)o1", "activity, negative = inhibition": "inactive: -14.2%"}, {"smiles": "O=C1C(Nc2ccccc2)=C2CCCC=C2N1c1ccccc1", "activity, negative = inhibition": "inactive: -0.508%"}, {"smiles": "CCOC(=O)C1CCN(c2ncnc3c2cnn3-c2ccccc2)CC1", "Potency": "inconclusive: 2.24 µM [inhibitor, full curve]"}, {"smiles": "O=C(Nc1nc(-c2cccc3ccccc23)cs1)c1cnccn1", "Potency": "inconclusive: 2.82 µM [inhibitor, full curve]"}, {"smiles": "CN(C)/C=C/c1oc2ccc(O)cc2c1[N+](=O)[O-]", "Potency": "active: 11.2 µM"}, {"smiles": "Nc1c(C(=O)O)cnc2c(-c3ccc(Cl)cc3)cnn12", "Potency": "inconclusive: 14.1 µM [inhibitor, partial curve]"}, {"smiles": "CC(OC(=O)C1=COCCO1)C(=O)Nc1ccc(Oc2ccccc2)cc1", "note": "(configuration not stated)", "Potency": "inconclusive: 28.2 µM [inhibitor, single point]"}, {"smiles": "COc1ccc(C(C)(C)C)cc1NC(=O)c1ccoc1C", "activity, negative = inhibition": "inactive: -11.6%"}, {"smiles": "Cc1ccsc1/C=N\\NC(=O)c1ccc2c(c1)OCO2", "Potency": "inconclusive: 1.26 µM [inhibitor, full curve]"}, {"smiles": "O=C(CNc1ccc(C(F)(F)F)cc1[N+](=O)[O-])OCC(=O)c1ccccc1", "Potency": "inconclusive: 39.8 µM [inhibitor, single point]"}, {"smiles": "C1=Cc2ccccc2Nc2ccccc21", "Potency": "inconclusive: 20 µM [inhibitor, partial curve]"}, {"smiles": "COC(=O)c1ccccc1NC(=O)c1ccccc1OC", "Potency": "inconclusive: 44.7 µM [inhibitor, single point]"}, {"smiles": "COCCCNc1nc2nonc2nc1N(C)CC1CCCN1C", "note": "(configuration not stated)", "activity, negative = inhibition": "inactive: -13.4%"}, {"smiles": "CC(=O)c1c(C)nn(CCC(=O)O)c1C", "activity, negative = inhibition": "inactive: -3.86%"}, {"smiles": "COc1cc(C2C(=O)N(C3CCCCCC3)CC(=O)N2CCC2=CCCCC2)ccc1OC(C)C", "note": "(configuration not stated)", "activity, negative = inhibition": "inactive: -14.5%"}, {"smiles": "COc1cccc(-c2cncnc2NCc2ccc(OC)cc2OC)c1", "Potency": "inconclusive: 39.8 µM [inhibitor, partial curve, poor fit]"}, {"smiles": "COc1ccccc1N1CCN(C(=O)/C=C/c2c(Cl)nc3ccccn23)CC1", "Potency": "inconclusive: 15.8 µM [inhibitor, partial curve]"}, {"smiles": "Cc1nc(SCC(=O)Nc2ccc(N3CCOCC3)cc2)nc(C)c1C", "Potency": "inconclusive: 15.8 µM [inhibitor, partial curve]"}, {"smiles": "Clc1ccc(-c2cn3ncsc3n2)cc1", "Potency": "inconclusive: 28.2 µM [inhibitor, partial curve, poor fit]"}, {"smiles": "Fc1ccc(-n2[nH]nnc2=S)cc1N1CCCC1", "activity, negative = inhibition": "inactive: -8.17%"}, {"smiles": "O=C(NCc1ccccc1)C(=O)NCC(c1ccc2c(c1)OCO2)N1CCOCC1", "note": "(configuration not stated)", "activity, negative = inhibition": "inactive: 1.87%"}, {"smiles": "COc1ccc(CNC(=O)C/C(C)=N/NC(=O)COc2ccc(C)cc2Br)cc1", "activity, negative = inhibition": "inactive: -12.3%"}, {"smiles": "NNc1nc2sc3c(c2c(=O)[nH]1)CCc1ccccc1-3", "Potency": "inconclusive: 17.8 µM [inhibitor, partial curve]"}, {"smiles": "CC1CCC(NC(=O)c2ccc3c(c2)N(Cc2ccccc2F)C(=O)c2ccccc2S3=O)CC1", "note": "(configuration not stated)", "Potency": "inconclusive: 39.8 µM [inhibitor, single point]"}, {"smiles": "COc1ccc(C(C)=O)cc1COC(=O)c1c(C)noc1C", "activity, negative = inhibition": "inactive: -4.89%"}, {"smiles": "O=C1NC(c2ccccc2)=N/C1=C/c1ccco1", "activity, negative = inhibition": "inactive: 6.36%"}, {"smiles": "Cn1cccc1/C=C1\\CC(C(C)(C)C)C/C(=C\\c2cccn2C)C1=O", "note": "(configuration not stated)", "Potency": "inconclusive: 12.6 µM [inhibitor, partial curve]"}, {"smiles": "CCCC(=O)Nc1nc2c(ncn2[C@@H]2O[C@H]3COP(=O)(O)O[C@@H]3[C@@H]2OC(=O)CCC)c(=O)[nH]1", "activity, negative = inhibition": "inactive: -4.53%"}, {"smiles": "FC(F)(F)c1ccc(C2Nc3cccc4cccc(c34)N2)cc1", "Potency": "inconclusive: 25.1 µM [inhibitor, partial curve]"}, {"smiles": "CC(C)N(Cc1nccn1C)C(=O)CC1C(=O)NCCN1Cc1ccccc1C(F)(F)F", "note": "(configuration not stated)", "Potency": "inconclusive: 39.8 µM [inhibitor, single point]"}, {"smiles": "COc1ccc(-n2cccc2/C=C2/NC(=O)N(c3cccc(Cl)c3)C2=O)cc1", "activity, negative = inhibition": "inactive: -3.07%"}, {"smiles": "O=C(Nc1nc(-c2ccc(Cl)s2)cs1)c1ccccc1", "Potency": "inconclusive: 5.01 µM [inhibitor, full curve, poor fit]"}, {"smiles": "NNc1nc(-c2ccccc2)cc(-c2ccccc2)n1", "Potency": "inconclusive: 12.6 µM [inhibitor, partial curve]"}, {"smiles": "COC(=O)C/C=C\\[C@@H](C)[C@@H](CO)NS(=O)(=O)c1ccc(C)cc1", "activity, negative = inhibition": "inactive: -3.72% [at 11.5 µM]"}, {"smiles": "CCOCCCNC(=O)C(c1ccc(OC)cc1)N(Cc1ccc2c(c1)OCO2)C(=O)c1ccc(NC(C)=O)cc1", "note": "(configuration not stated)", "Potency": "inconclusive: 0.1 µM [inhibitor, full curve, poor fit]"}]}]}
